Paper PMC9911399, “Two distinct binding modes provide the RNA-binding protein RbFox with extraordinary sequence specificity”
Residue numbers refer to the chain shown, from its start. Some of the results follow.

B1: GGGUUCA (DNA:RNA)
RNA: GGGAGACCGGAAUUCAGAUUGUCCGGGUUCAUUAAAUCCCGUCGUAGCCACCA
DNA 1: CAATCTGAATTCCGGTCTCCC
DNA 2: TGGTGGCTACGACGGGATT
B2: GGGGCGC (DNA:RNA)
RNA: B1 RNA with U28G, U29C, C30G, A31C
DNA 1: CAATCTGAATTCCGGTCTCCC
DNA 2: TGGTGGCTACGACGGGATT
B3: UCACAAU (DNA:RNA)
RNA: GGGAGACCGGAAUUCAGAUUGUCCUCACAAUUUAAAUCCCGUCGUAGCCACCA
DNA 1: CAATCTGAATTCCGGTCTCCC
DNA 2: TGGTGGCTACGACGGGATT
B4: AAAAUAA (DNA:RNA)
RNA: B1 RNA with G25A, G26A, G27A, U28A, C30A
DNA 1: CAATCTGAATTCCGGTCTCCC
DNA 2: TGGTGGCTACGACGGGATT
B5: AGUACCG (DNA:RNA)
RNA: B1 RNA with G25A, G27U, U28A, U29C, A31G
DNA 1: CAATCTGAATTCCGGTCTCCC
DNA 2: TGGTGGCTACGACGGGATT
B6: GGACAAU (DNA:RNA)
RNA: B3 RNA with U25G, C26G
DNA 1: CAATCTGAATTCCGGTCTCCC
DNA 2: TGGTGGCTACGACGGGATT
B7: GCUGCUG (DNA:RNA)
RNA: B1 RNA with G26C, G27U, U28G, U29C, C30U, A31G
DNA 1: CAATCTGAATTCCGGTCTCCC
DNA 2: TGGTGGCTACGACGGGATT
B8: UUUAACA (DNA:RNA)
RNA: B1 RNA with G25U, G26U, G27U, U28A, U29A
DNA 1: CAATCTGAATTCCGGTCTCCC
DNA 2: TGGTGGCTACGACGGGATT
B9: GGGAAUG (DNA:RNA)
RNA: B1 RNA with U28A, U29A, C30U, A31G
DNA 1: CAATCTGAATTCCGGTCTCCC
DNA 2: TGGTGGCTACGACGGGATT
B10: AAUGUCA (DNA:RNA)
RNA: B1 RNA with G25A, G26A, G27U, U28G
DNA 1: CAATCTGAATTCCGGTCTCCC
DNA 2: TGGTGGCTACGACGGGATT
B11: GUCGCGA (DNA:RNA)
RNA: B1 RNA with G26U, G27C, U28G, U29C, C30G
DNA 1: CAATCTGAATTCCGGTCTCCC
DNA 2: TGGTGGCTACGACGGGATT
B12: CCUAUGU (DNA:RNA)
RNA: B3 RNA with U25C, A27U, C28A, A29U, A30G
DNA 1: CAATCTGAATTCCGGTCTCCC
DNA 2: TGGTGGCTACGACGGGATT
B13: GGAUUCC (DNA:RNA)
RNA: B1 RNA with G27A, A31C
DNA 1: CAATCTGAATTCCGGTCTCCC
DNA 2: TGGTGGCTACGACGGGATT
B14: CCAACUG (DNA:RNA)
RNA: B3 RNA with U25C, C28A, A29C, A30U, U31G
DNA 1: CAATCTGAATTCCGGTCTCCC
DNA 2: TGGTGGCTACGACGGGATT
B15: UCUUAUC (DNA:RNA)
RNA: B3 RNA with A27U, C28U, A30U, U31C
DNA 1: CAATCTGAATTCCGGTCTCCC
DNA 2: TGGTGGCTACGACGGGATT
B16: GUAGUCG (DNA:RNA)
RNA: B1 RNA with G26U, G27A, U28G, A31G
DNA 1: CAATCTGAATTCCGGTCTCCC
DNA 2: TGGTGGCTACGACGGGATT
B17: UCCCUAA (DNA:RNA)
RNA: B3 RNA with A27C, A29U, U31A
DNA 1: CAATCTGAATTCCGGTCTCCC
DNA 2: TGGTGGCTACGACGGGATT
B18: CGUUUAU (DNA:RNA)
RNA: B1 RNA with G25C, G27U, C30A, A31U
DNA 1: CAATCTGAATTCCGGTCTCCC
DNA 2: TGGTGGCTACGACGGGATT
B19: CUCGCUU (DNA:RNA)
RNA: B3 RNA with U25C, C26U, A27C, C28G, A29C, A30U
DNA 1: CAATCTGAATTCCGGTCTCCC
DNA 2: TGGTGGCTACGACGGGATT
B20: CUCGGCA (DNA:RNA)
RNA: B1 RNA with G25C, G26U, G27C, U28G, U29G
DNA 1: CAATCTGAATTCCGGTCTCCC
DNA 2: TGGTGGCTACGACGGGATT
B21: GGAAUCA (DNA:RNA)
RNA: B1 RNA with G27A, U28A
DNA 1: CAATCTGAATTCCGGTCTCCC
DNA 2: TGGTGGCTACGACGGGATT
B22: UUACAAU (DNA:RNA)
RNA: B3 RNA with C26U
DNA 1: CAATCTGAATTCCGGTCTCCC
DNA 2: TGGTGGCTACGACGGGATT
B23: UAUCAAG (DNA:RNA)
RNA: B3 RNA with C26A, A27U, U31G
DNA 1: CAATCTGAATTCCGGTCTCCC
DNA 2: TGGTGGCTACGACGGGATT
B24: UUCCGGC (DNA:RNA)
RNA: B3 RNA with C26U, A27C, A29G, A30G, U31C
DNA 1: CAATCTGAATTCCGGTCTCCC
DNA 2: TGGTGGCTACGACGGGATT
B25: GUCUUAC (DNA:RNA)
RNA: B1 RNA with G26U, G27C, C30A, A31C
DNA 1: CAATCTGAATTCCGGTCTCCC
DNA 2: TGGTGGCTACGACGGGATT
B26: ACCAACU (DNA:RNA)
RNA: B3 RNA with U25A, A27C, C28A, A30C
DNA 1: CAATCTGAATTCCGGTCTCCC
DNA 2: TGGTGGCTACGACGGGATT
B27: CUGUGUG (DNA:RNA)
RNA: B1 RNA with G25C, G26U, U29G, C30U, A31G
DNA 1: CAATCTGAATTCCGGTCTCCC
DNA 2: TGGTGGCTACGACGGGATT
B28: CUUUGAU (DNA:RNA)
RNA: B3 RNA with U25C, C26U, A27U, C28U, A29G
DNA 1: CAATCTGAATTCCGGTCTCCC
DNA 2: TGGTGGCTACGACGGGATT
B29: UCGCGUU (DNA:RNA)
RNA: B3 RNA with A27G, A29G, A30U
DNA 1: CAATCTGAATTCCGGTCTCCC
DNA 2: TGGTGGCTACGACGGGATT
B30: UCUAUCA (DNA:RNA)
RNA: B1 RNA with G25U, G26C, G27U, U28A
DNA 1: CAATCTGAATTCCGGTCTCCC
DNA 2: TGGTGGCTACGACGGGATT
B31: GAGGUCG (DNA:RNA)
RNA: B1 RNA with G26A, U28G, A31G
DNA 1: CAATCTGAATTCCGGTCTCCC
DNA 2: TGGTGGCTACGACGGGATT

Target: T1, RBFOX1 RRM RbFoxmut (Fox-RRM*) (Homo sapiens, UniProt Q9NWB1 109-208, R118D;E147R;N151S;E152T)
T1 sequence: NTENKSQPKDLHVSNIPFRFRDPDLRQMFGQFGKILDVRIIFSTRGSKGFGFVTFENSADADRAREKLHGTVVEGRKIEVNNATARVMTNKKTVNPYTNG
Assay: EMSA; HiTS-Eq, 1 nM pool, 10 min; buffer printed only for the single-RNA assays: 10 mM Tris pH 7.5, 150 mM NaCl, 3.4 mM EDTA, 0.001% NP-40, 30 C
Conditions: tags: His6 N-terminal (pET28a); label: 5' 32P
Summary of the method: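 These values rest on relative association constants, computed from read-count changes of each RNA species versus the control reaction and normalised to the cognate motif. Reads came from free RNA recovered by 8% native PAGE after purified RbFox RRM (wild type or mutant) at increasing concentrations was equilibrated for 10 min in 50 µL with 1 nM of a 5′-radiolabelled pool with 7 randomized nucleotides and DNA-annealed flanks.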

Binder	binding signal
B1	0.205 KA relative to UGCAUGU
B2	0.126 KA relative to UGCAUGU
B3	0.048 KA relative to UGCAUGU
B4	0.0839 KA relative to UGCAUGU
B5	0.111 KA relative to UGCAUGU
B6	0.0574 KA relative to UGCAUGU
B7	0.0803 KA relative to UGCAUGU
B8	0.104 KA relative to UGCAUGU
B9	1.15 KA relative to UGCAUGU
B10	0.121 KA relative to UGCAUGU
B11	0.109 KA relative to UGCAUGU
B12	0.148 KA relative to UGCAUGU
B13	0.0795 KA relative to UGCAUGU
B14	0.112 KA relative to UGCAUGU
B15	0.0734 KA relative to UGCAUGU
B16	0.125 KA relative to UGCAUGU

Binder	binding signal
B17	0.082 KA relative to UGCAUGU
B18	0.147 KA relative to UGCAUGU
B19	0.117 KA relative to UGCAUGU
B20	0.127 KA relative to UGCAUGU
B21	0.426 KA relative to UGCAUGU
B22	0.0483 KA relative to UGCAUGU
B23	0.0678 KA relative to UGCAUGU
B24	0.0669 KA relative to UGCAUGU
B25	0.0985 KA relative to UGCAUGU
B26	0.0858 KA relative to UGCAUGU
B27	0.388 KA relative to UGCAUGU
B28	0.084 KA relative to UGCAUGU
B29	0.132 KA relative to UGCAUGU
B30	0.116 KA relative to UGCAUGU
B31	0.187 KA relative to UGCAUGU
